Test results as given in paper PMC4933444.
These are yes or no findings as the source states them, for the method shown. Some binding calls cover weakened binding; strength is not graded here. Sequences can lack the tags named with a protein.

Protein sequences, listed by entry. Tags and fused reporters are not part of them. Lines headed by an entry give the natural chain unless they say otherwise; changes in a name come on top. Residues count along the entry.
UniProt Q00987: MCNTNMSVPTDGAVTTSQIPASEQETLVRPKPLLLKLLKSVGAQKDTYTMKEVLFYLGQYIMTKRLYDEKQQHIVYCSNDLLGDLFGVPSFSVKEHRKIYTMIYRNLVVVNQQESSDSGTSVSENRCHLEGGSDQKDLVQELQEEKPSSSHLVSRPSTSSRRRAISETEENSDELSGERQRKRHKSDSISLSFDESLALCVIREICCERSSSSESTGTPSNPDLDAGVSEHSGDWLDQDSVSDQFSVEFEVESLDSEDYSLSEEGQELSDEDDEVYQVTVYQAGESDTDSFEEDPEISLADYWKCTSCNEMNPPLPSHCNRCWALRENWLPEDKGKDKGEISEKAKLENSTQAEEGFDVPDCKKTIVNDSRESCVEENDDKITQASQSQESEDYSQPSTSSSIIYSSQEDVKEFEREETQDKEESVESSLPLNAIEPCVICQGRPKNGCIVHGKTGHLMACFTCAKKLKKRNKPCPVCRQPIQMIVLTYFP
GST-Mdm2 mutant 237–288: residues 237-288 of Q00987

How the values were obtained:
Experiment in all cases: pull-down; GST pull-down: purified GST or GST-tagged proteins on glutathione-Sepharose beads overnight at 4 °C, His-tagged proteins added for 4 h at 4 °C, washed three times, eluted, Western blot; both purified
[1] = target: GST-Mdm2 mutant 237–288 (UniProt Q00987)
[2] = target: GST-p53 mutant 356–393 (UniProt P04637)
[3] = target: GST-p53 (UniProt P04637)
[4] = target: GST-Mdm2 (UniProt Q00987)
[5] = target: GST-p53 mutant 40–92 (UniProt P04637)

- binding [1]: no binding
- binding [2]: no binding
- binding [3]: binds
- binding [4]: binds
- binding [5]: no binding
B1: His-HBP1 (protein, UniProt O60381 1-514)
chain: MVWEVKTNQMPNAVQKLLLVMDKRASGMNDSLELLQCNENLPSSPGYNSCDEHMELDDLPELQAVQSDPTQSGMYQLSSDVSHQEYPRSSWNQNTSDIPETTYRENEVDWLTELANIATSPQSPLMQCSFYNRSSPVHIIATSKSLHSYARPPPVSSSSKSEPAFPHHHWKEETPVRHERANSESESGIFCMSSLSDDDDLGWCNSWPSTVWHCFLKGTRLCFHKGSNKEWQDVEDFARAEGCDNEEDLQMGIHKGYGSDGLKLLSHEESVSFGESVLKLTFDPGTVEDGLLTVECKLDHPFYVKNKGWSSFYPSLTVVQHGIPCCEVHIGDVCLPPGHPDAINFDDSGVFDTFKSYDFTPMDSSAVYVLSSMARQRRASLSCGGPGGQDFARSGFSKNCGSPGSSQLSSNSLYAKAVKNHSSGTVSATSPNKCKRPMNAFMLFAKKYRVEYTQMYPGKDNRAISVILGDRWKKMKNEERRMYTLEAKALAEEQKRLNPDCWKRKRTNSGSQQH
